# Literature values as cited in publication PMC11006913.
# Substitutions are numbered along the chain they refer to. This is one part of the list.
# Key:
# Conditions in all cases: PBM; conditions not shown; double strand, one strand shown; scale: upbm affinity estimate (log intensity, higher = more binding, comparable within an allelic series)
# [1] = molecular target: ARX (Homo sapiens) (UniProt Q96QS3)
# [2] = molecular target: ARX P353L (Homo sapiens) (UniProt Q96QS3)
# [3] = molecular target: ARX P353R (Homo sapiens) (UniProt Q96QS3)
# [4] = molecular target: T1, PBX4 (Homo sapiens) (UniProt Q9BYU1)
# T1 sequence: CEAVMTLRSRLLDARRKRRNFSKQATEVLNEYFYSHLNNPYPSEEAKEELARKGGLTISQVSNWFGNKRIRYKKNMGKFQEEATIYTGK
# [5] = molecular target: T2, PBX4 R215Q (Homo sapiens) (UniProt Q9BYU1)
# T2 sequence: T1 sequence with R19Q
# [6] = molecular target: ARX L343Q (Homo sapiens) (UniProt Q96QS3)
# [7] = molecular target: ARX R332H (Homo sapiens) (UniProt Q96QS3)
# [8] = molecular target: T3, HESX1 E149K (Homo sapiens) (UniProt Q9UBX0)
# T3 sequence: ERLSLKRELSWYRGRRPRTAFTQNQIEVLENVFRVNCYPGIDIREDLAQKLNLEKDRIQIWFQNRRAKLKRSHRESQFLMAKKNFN
# [9] = molecular target: T4, HESX1 N125S (Homo sapiens) (UniProt Q9UBX0)
# T4 sequence: T3 sequence with N31S, K55E
# [10] = molecular target: T5, HESX1 R160C (Homo sapiens) (UniProt Q9UBX0)
# T5 sequence: T3 sequence with K55E, R66C
# [11] = molecular target: HOXD13 I297V (Homo sapiens) (UniProt P35453)
# [12] = molecular target: HOXD13 I322L (Homo sapiens) (UniProt P35453)
# [13] = molecular target: HOXD13 N298S (Homo sapiens) (UniProt P35453)
# [14] = molecular target: HOXD13 Q325K (Homo sapiens) (UniProt P35453)
# [15] = molecular target: HOXD13 Q325R (Homo sapiens) (UniProt P35453)
# [16] = molecular target: HOXD13 R306W (Homo sapiens) (UniProt P35453)
# [17] = molecular target: HOXD13 S316C (Homo sapiens) (UniProt P35453)
# [18] = molecular target: ISX (Homo sapiens) (UniProt Q2M1V0)
# [19] = molecular target: ISX R83Q (Homo sapiens) (UniProt Q2M1V0)
# [20] = molecular target: ARX T333N (Homo sapiens) (UniProt Q96QS3)
# [21] = molecular target: PROP1 R112Q (Homo sapiens) (UniProt O75360)
# [22] = molecular target: PROP1 R99Q (Homo sapiens) (UniProt O75360)
# [23] = molecular target: PITX2 L100Q (Homo sapiens) (UniProt Q99697)
# [24] = molecular target: PITX2 R108H (Homo sapiens) (UniProt Q99697)
# [25] = molecular target: PITX2 R130W (Homo sapiens) (UniProt Q99697)
# [26] = molecular target: PITX2 T114P (Homo sapiens) (UniProt Q99697)
sequence,measurement,setting,value
GGTAGTTA [8-mer GGTAGTTA],binding signal,[1],11
same,binding signal,[2],11
same,binding signal,[3],10.6
GATAACGA [8-mer GATAACGA],binding signal,[2],11.5
ATCCATCA [8-mer ATCCATCA],binding signal,[1],11
same,binding signal,[4],10.8
same,binding signal,[5],10.2
GGTGTTAA [8-mer GGTGTTAA],binding signal,[1],11.2
same,binding signal,[6],10.6
same,binding signal,[7],10.6
GCTCATTA [8-mer GCTCATTA],binding signal,[2],12.3
CTCATTAA [8-mer CTCATTAA],binding signal,[2],12.5
same,binding signal,[8],11
same,binding signal,[9],10.9
same,binding signal,[10],10.3
same,binding signal,[11],12.2
same,binding signal,[12],11.4
same,binding signal,[13],12.6
same,binding signal,[14],10.9
same,binding signal,[15],12
same,binding signal,[16],11.4
same,binding signal,[17],12.2
same,binding signal,[18],14.8
same,binding signal,[19],13.4
AAGATTAC [8-mer AAGATTAC],binding signal,[1],11.1
same,binding signal,[6],10.6
same,binding signal,[3],10.6
same,binding signal,[7],10.6
same,binding signal,[20],10.7
GAATAATA [8-mer GAATAATA],binding signal,[1],11.4
same,binding signal,[6],10.7
same,binding signal,[3],10.7
same,binding signal,[7],10.8
same,binding signal,[20],11.2
GGGTAATA [8-mer GGGTAATA],binding signal,[1],11.4
same,binding signal,[6],10.6
same,binding signal,[3],10.6
same,binding signal,[7],10.7
AATCAAGA [8-mer AATCAAGA],binding signal,[1],11.4
same,binding signal,[6],10.6
same,binding signal,[3],10.6
same,binding signal,[7],10.8
ATAACTTG [8-mer ATAACTTG],binding signal,[1],11.3
same,binding signal,[20],11.1
GTCGATTA [8-mer GTCGATTA],binding signal,[2],12
ACTAATGA [8-mer ACTAATGA],binding signal,[2],12.4
CAATTACA [8-mer CAATTACA],binding signal,[2],12.2
same,binding signal,[8],11.5
same,binding signal,[9],11.4
same,binding signal,[10],10.4
same,binding signal,[18],14.7
same,binding signal,[19],13.1
same,binding signal,[21],12.7
same,binding signal,[22],12.2
AAATTGTA [8-mer AAATTGTA],binding signal,[1],11.3
same,binding signal,[6],10.8
same,binding signal,[3],10.7
same,binding signal,[20],11.1
TAATGAGA [8-mer TAATGAGA],binding signal,[2],12.3
CTAATGAG [8-mer CTAATGAG],binding signal,[2],12.6
GTAATCGA [8-mer GTAATCGA],binding signal,[2],11.7
TAATGCTA [8-mer TAATGCTA],binding signal,[1],11.3
same,binding signal,[6],10.8
same,binding signal,[3],10.7
same,binding signal,[7],10.8
AAATTTAA [8-mer AAATTTAA],binding signal,[1],11.5
same,binding signal,[6],10.5
same,binding signal,[3],10.6
same,binding signal,[7],10.6
ATGTATAG [8-mer ATGTATAG],binding signal,[1],11.1
same,binding signal,[20],11
ATTATTCC [8-mer ATTATTCC],binding signal,[1],11.6
same,binding signal,[6],10.8
same,binding signal,[3],10.7
same,binding signal,[7],10.9
CATACTTA [8-mer CATACTTA],binding signal,[1],11.2
same,binding signal,[2],11.1
same,binding signal,[20],11
CATATGAA [8-mer CATATGAA],binding signal,[1],10.8
same,binding signal,[20],10.9
AGGATTAT [8-mer AGGATTAT],binding signal,[1],11.2
same,binding signal,[6],10.6
same,binding signal,[3],10.6
same,binding signal,[7],10.7
same,binding signal,[23],11.4
same,binding signal,[24],9.57
same,binding signal,[25],8.6
same,binding signal,[26],9.97
